Experimental data from the supplement of paper PMC3334620.
In all, about 33,000 sequences were measured (“E-score (-0.5 to 0.5)”: median about -0.041, highest 2% from about 0.37 on). Some of the results follow.

biological target: T1, Ecm22 (UniProt Q05958); experiment: PBM E-score (8-mer binding enrichment) (E-score (-0.5 to 0.5)); higher = stronger / more preferred TF binding; most listed sequences are background and not binding sites; settings: protein concentration: 200 nM; construct: GST-full length
T1 sequence: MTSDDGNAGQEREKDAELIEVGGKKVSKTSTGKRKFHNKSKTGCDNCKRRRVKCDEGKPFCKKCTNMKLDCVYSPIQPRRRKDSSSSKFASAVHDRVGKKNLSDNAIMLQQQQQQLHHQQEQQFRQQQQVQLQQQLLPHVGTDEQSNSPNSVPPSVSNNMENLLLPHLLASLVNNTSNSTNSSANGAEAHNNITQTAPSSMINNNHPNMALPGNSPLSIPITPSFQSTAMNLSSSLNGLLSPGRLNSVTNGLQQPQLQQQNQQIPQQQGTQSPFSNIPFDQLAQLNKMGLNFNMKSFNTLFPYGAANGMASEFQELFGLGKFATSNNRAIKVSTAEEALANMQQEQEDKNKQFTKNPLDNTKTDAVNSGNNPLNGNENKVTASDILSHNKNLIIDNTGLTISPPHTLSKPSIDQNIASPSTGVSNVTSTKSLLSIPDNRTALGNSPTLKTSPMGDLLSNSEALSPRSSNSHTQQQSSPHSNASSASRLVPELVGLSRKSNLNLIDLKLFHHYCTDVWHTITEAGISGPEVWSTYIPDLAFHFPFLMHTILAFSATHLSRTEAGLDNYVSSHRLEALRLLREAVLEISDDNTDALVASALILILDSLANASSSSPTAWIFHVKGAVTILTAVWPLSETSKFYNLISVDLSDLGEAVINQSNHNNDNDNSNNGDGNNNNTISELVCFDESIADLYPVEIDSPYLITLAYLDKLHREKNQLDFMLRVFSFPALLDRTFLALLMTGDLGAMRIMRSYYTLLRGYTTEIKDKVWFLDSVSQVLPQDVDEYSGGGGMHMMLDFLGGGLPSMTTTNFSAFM
Method in brief: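 Yeast transcription factors, full-length or as DNA-binding domains, were expressed with a GST tag using PURExpress in vitro transcription/translation. At about 100-200 nM they were applied to universal all-10-mer Agilent arrays, double-stranded by primer extension on fresh or once-stripped slides. Fluorescent anti-GST detected bound protein, and masliner normalised the scans. E-scores for ungapped eight-base words, pooled with reverse complements, came from the Universal PBM Analysis Suite.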

Sequence	PBM E-score
CAAAGGAA	0.149
CATTTGGG	0.125
AAGTCTAT	-0.187
AGGTATCG	0.153
CGCTATTA	0.169
CTGGGGTC	-0.115
CACCAATA	-0.0897
CGCACGTC	0.00508
GAGCCGTA	0.322
GCAATTCA	-0.078
AGCTGGCG	7e-05
CCCCACTC	0.00604
ACCTGCTC	0.00367
CATGTAAC	-0.00076
TAGAGTGA	-0.268
AGACTAAT	-0.182
ACCAGATA	0.188
ACAAAGCT	-0.117
AATAGTAG	-0.0269
GTCATACA	-0.149
AAAGTACG	0.336
CGCAATTA	0.00541

Sequence	PBM E-score
GTTTGATA	0.0927
ATTATACC	0.104
CTCTAGTC	-0.181
TGACCCAA	-0.284
ATATTGCA	0.2
TAGCCAAA	0.0563
ATATCGCC	-0.0455
GCCTTCAA	-0.277
AGTGCATG	-0.0692
AACACACT	0.00223
CCTAGCGC	-0.311
ACTTTCAC	-0.05
CAACCGTC	-0.0801
AGTCGGAG	-0.122
GGCACGTA	0.0712
ATACGGGG	0.386
CTTTCGAC	0.0201
GCAACGGC	0.14
AAACTGGC	-0.184
ATCAGAAC	0.0763
CCTTGCGA	-0.019
AGGGGGTA	-0.275

Sequence	PBM E-score
AGCTGGCA	-0.0695
ACGCATAA	0.0983
ACACATTA	0.031
GCCACTAC	-0.125
AGCCCTGG	-0.233
GGCCCTCA	-0.375
AGTATCAT	0.166
AGTCTTTA	-0.0866
CCAAGACA	-0.257
CTCGCGAC	0.26
ATAGATAG	-0.33
ACGCACAT	0.19
TACGGGCA	0.357
CCGAAACA	0.185
ACACGTCA	-0.16
ATTCCTCA	-0.205
AGCTGGAA	-0.0474
CTTGACTA	-0.186
CCAAGCAG	-0.22
AACCAGTC	-0.105
AGGCGTGG	-0.211
AATCTGTG	-0.0802

Sequence	PBM E-score
AACTAGCG	0.0768
AGACGGCG	-0.0146
CTCATGAC	-0.0185
CTAACCCC	-0.284
GAGGGATA	0.104
CGCTTACG	0.292
ATTACGTG	-0.0556
GGATCTAA	0.0077
ACACTCCA	-0.028
CTATCAGC	-0.156
CCATTGAA	-0.131
GGATCGTA	0.434
GTCGGCTA	0.102
AGATCTAA	-0.0535
AGAGTGCG	0.0549
GCCCGTAA	0.221
CAGAGAAG	-0.00762
GGAATAGA	-0.0728
GAAGTTGA	0.0401
AAGGGTAT	-0.0533
